The record followed here is PubChem BioAssay AID1347073 (National Center for Advancing Translational Sciences (NCATS), 2019).

Each structure is given as a SMILES string. The campaign covered roughly 45,000 compounds. About 200 (0.44%) were called active. Inconclusive results (about 7%) are left out. The call rests on the fitted dose curve; in most records, active means well fitted activation curve with a large enough effect; inconclusive means small, poorly fitted or top-dose-only effect; inactive means no such curve, though single readings can be large or run the other way. Some of the results follow.
Potency means the concentration at half of the fitted maximal effect.

The nature of this assay: qHTS of TDP-43 Inhibitors: NCGC Sytravon Library Screen. Further: nearly all actives have a fitted effect of over 55% in size. On growth rescue (activation): 0% is about no effect. The conditions noted are these: yeast TDP-43 toxicity rescue, BacTiter-Glo growth, 24 h; series mostly up to 46.1 µM; growth rescue (activation): at the top concentration. Put shortly:
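TDP-43-expressing yeast, pregrown in raffinose, seeded at OD600 0.02 in galactose medium with compound for 24 hr at 30 deg C. Growth read by BacTiter-Glo luminescence, so rescue of toxicity appears as activation.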
(qHTS replaces the single test concentration by a dilution series.)
For the compound `CCOc1ccc(C(=O)NC(C(=O)NCc2cccnc2)C(C)C)cc1` (centres undefined), the “growth rescue (activation)” value is inactive: -4.63%.

On to `Nc1nnc(CSCc2cccc(Br)c2)s1`, for which the “growth rescue (activation)” value was inactive: -4.07%.

On to `N#C/C(=C\c1ccc(-c2ccccc2[N+](=O)[O-])o1)C(=O)Nc1nc(-c2cccs2)cs1`, for which the “growth rescue (activation)” value is inactive: -14.9%.

With `Cc1ccc(-c2nc(-c3ccccn3)no2)cc1Cl`, the “growth rescue (activation)” value was inactive: 9.64%.

Regarding `CCCOc1ccc(F)cc1-c1cc(C(=O)Nc2ccccc2)[nH]n1`, the “growth rescue (activation)” value was inactive: 27.9%.

With `CN(C)S(=O)(=O)N1CCC(Oc2ccc(C(=O)NCCc3cscn3)cc2)CC1`, the “growth rescue (activation)” value is inactive: 6.64%.

`CCCCSCc1nc2ccccn2c1Br`: the “growth rescue (activation)” value is inactive: 22.1%.

On to `C=CCO/N=C(/CCC)C1=C(N)CC(C)(C)CC1=O`, for which the “growth rescue (activation)” value was inactive: 8.51%.

For `O=C(CN1CCCCCC1)Nc1ccc([N+](=O)[O-])cc1Br`, the “growth rescue (activation)” value is inactive: 2.47%.

`Cc1ccc(NC(=O)C(OC(=O)c2ccc(NC(N)=O)cc2)c2ccccc2)cc1Cl` (centres undefined): the “growth rescue (activation)” value is inactive: -1.16%.

With `O=C(Nc1cccnc1)c1cccc(S(=O)(=O)N2CCCC2)c1`, the “growth rescue (activation)” value is inactive: -4.69%.

In the case of `CC(=O)CSc1nnc(-c2ccc(S(=O)(=O)N3CCCC3)cc2)n1C`, the “growth rescue (activation)” value was inactive: -4.76%.

On to `CC(CC(=O)O)NCC1COc2ccccc2O1` (centres undefined), for which the “growth rescue (activation)” value is inactive: 15.1%.

Regarding `O=C(O)c1cc(N/N=C/c2ccc3c(c2)OCO3)ccc1Cl`, the “growth rescue (activation)” value was inactive: 14.8%.

On to `O=C(N/N=C/c1ccccn1)c1cc(C2CC2)nc2ccccc12`, for which the “growth rescue (activation)” value was inactive: 10.5%.

On to `Cc1ccc2nc(NC(=O)c3cc(-c4ccco4)nc4ccccc34)sc2c1`, for which the “growth rescue (activation)” value was inactive: -12%.

Take `CC(=O)Nc1ccc(C(=O)NNC(=O)Cc2ccccc2)cc1`: the “growth rescue (activation)” value was inactive: 6.06%.

For `CCOc1cc(-c2noc(CCCC(=O)NC3CCCCC3)n2)ccc1OC`, the “growth rescue (activation)” value is inactive: 20%.

For `CC1(C)CN=C(N(Cc2ccccc2)C(=O)Nc2ccccc2)S1`, the “growth rescue (activation)” value is inactive: -6.48%.

With `O=C(Nc1ccccc1)N1CCC(C(=O)N2CCN(c3ccccc3F)CC2)CC1`, the “growth rescue (activation)” value was inactive: 10.4%.

As to `Cc1ccccc1OCc1nc2c3cnn(-c4ccccc4Br)c3ncn2n1`, the “growth rescue (activation)” value was inactive: 7.7%.

For the compound `COc1ccc(CC(=O)NNC(=O)c2cccs2)cc1`, the “growth rescue (activation)” value was inactive: 12.6%.

On to `COc1ccc(C(=O)NC(=S)Nc2ccc(N3CCCC3)cc2)cc1`, for which the “growth rescue (activation)” value is inactive: -1.72%.

On to `CN1CCN(c2oc(-c3ccccc3)nc2S(=O)(=O)c2ccccc2)CC1`, for which the “growth rescue (activation)” value was inactive: 2.11%.

Turning to `CC(=O)OC[C@@H]1CN(Cc2ccccc2)C[C@H](n2cnc3c(NCc4ccco4)ncnc32)O1`, the “growth rescue (activation)” value is inactive: 3.86%.

As to `COc1ccc(C(NC(=O)C2CCCCC2)c2c(O)ccc3ccccc23)cc1` (centres undefined), the “growth rescue (activation)” value was inactive: 3.64%.

With `CCc1ccc[n+](-c2[nH]c(=O)sc2/C=N/NC([S-])=Nc2ccccc2)c1`, the “growth rescue (activation)” value was inactive: 8.11%.

In the case of `Cc1ccc(N(C(=O)Nc2ccccc2)C2=NCCC2)cc1`, the “growth rescue (activation)” value is inactive: 2.9%.

Consider `CCC(=Nc1ccccc1OC)C1=C(O)CC(c2ccccc2)CC1=O` (centres undefined), for which the “growth rescue (activation)” value is inactive: -0.948%.

Take `O=c1cnnc(Nc2ccccc2F)[nH]1`: the “growth rescue (activation)” value is inactive: -11.1%.

On to `Cc1c(NC(=O)c2ccc(Cl)s2)c(=O)n(-c2ccccc2)n1C`, for which the “growth rescue (activation)” value was inactive: 10.7%.

Consider `COCCCNC(=O)C1CCN(c2nnc(-n3cccc3CNc3ccc(C)cc3)s2)CC1`, for which the “growth rescue (activation)” value is inactive: 7.37%.

With `COc1ccc(CC(=O)Nc2ccc(F)c(S(=O)(=O)N3CCOCC3)c2)cc1`, the “growth rescue (activation)” value was inactive: 3.51%.

On to `COc1ccc(Cl)cc1NC(=O)CSc1nc2sccc2c(=O)[nH]1`, for which the “growth rescue (activation)” value was inactive: 7.42%.

For the compound `O=C(O)c1ccccc1N(Cc1ccccc1)C(=O)CO/N=C/c1ccccc1`, the “growth rescue (activation)” value is inactive: -21.8%.

Take `O=C(COC(=O)c1c(Cl)ccc(Cl)c1Cl)NCC1CCCO1` (centres undefined): the Potency is active: 14.1 µM.

Take `CCOc1ccc(-c2c(C(=O)N/N=C/c3ccc(O)cc3)nnn2-c2nonc2N)cc1`: the “growth rescue (activation)” value is inactive: 13.8%.

On to `OC[C@@H]1CN(Cc2ccco2)C[C@H](n2cnc3c(NC4CC4)ncnc32)O1`, for which the “growth rescue (activation)” value is inactive: 19.6%.

`Cc1ccc(NC(=O)CNS(=O)(=O)c2ccc(F)cc2)cc1C`: the “growth rescue (activation)” value is inactive: 5.8%.

As to `Cc1sc2ncn(CC(=O)N3CCC(C(N)=O)CC3)c(=O)c2c1S(=O)(=O)N1CCOCC1`, the “growth rescue (activation)” value was inactive: 12.5%.

In the case of `Cn1ccnc1SCC(=O)c1ccc(C#N)cc1`, the “growth rescue (activation)” value is inactive: -1.26%.

Regarding `O=C1c2ccccc2C(=O)N1c1ccc(Cc2ccncc2)cc1`, the “growth rescue (activation)” value is inactive: 2.36%.

In the case of `COc1ccc(N(C(=O)c2cnccn2)C(C(=O)NC2CCCCC2)c2ccccc2)cc1` (centres undefined), the “growth rescue (activation)” value is inactive: -24.6%.

As for `COc1ccccc1NS(=O)(=O)c1cc(NC(=O)c2ccc3ccccc3n2)ccc1Cl`, the “growth rescue (activation)” value was inactive: 18.1%.

For the compound `CS(=O)(=O)N1N=C(c2ccccc2)CC1c1ccc2c(c1)OCO2` (centres undefined), the “growth rescue (activation)” value was inactive: 10.2%.

Turning to `CC(=O)Nc1ccc(NC(=O)c2sc3nc4n(c(=O)c3c2C)CCCCC4)cc1`, the “growth rescue (activation)” value was inactive: 6.05%.

For `COc1ccc(NC(=O)CC23CC4CC(C2)CC(n2nnc(C)n2)(C4)C3)cc1`, the “growth rescue (activation)” value is inactive: 8.85%.

Regarding `COc1ccc(-c2cnc(C(O)c3ccc(OC)c(F)c3)[nH]2)cc1` (centres undefined), the “growth rescue (activation)” value is inactive: 8.44%.

For the compound `COc1cccc(NC(=O)COc2ncnc3sc(C)c(C)c23)c1`, the “growth rescue (activation)” value was inactive: -6.93%.

For `CCCc1nnc(NC(=O)CS(=O)(=O)c2ccc(C)cc2)s1`, the “growth rescue (activation)” value is inactive: -1.14%.

For the compound `CCc1nc2c(OCCOc3ccccc3)cccn2c1N(C)C(=O)c1ccc(C)cc1`, the “growth rescue (activation)” value was inactive: 7.24%.

`O=C(CSc1ccc2ccccc2c1)Nc1nc2ccccc2[nH]1`: the “growth rescue (activation)” value is inactive: 4.66%.

Turning to `CCOc1cc(/C=N/NC(=O)C(=O)NCc2cccnc2)ccc1O`, the “growth rescue (activation)” value was inactive: 1.73%.

Turning to `CN(C(=O)CSc1nnc(-c2c[nH]c3ccccc23)o1)C1CCS(=O)(=O)C1` (centres undefined), the “growth rescue (activation)” value is inactive: 3.03%.

Consider `Cc1ccc(OCCn2c3ccccc3n3nc(C)c(=O)nc23)cc1`, for which the “growth rescue (activation)” value is inactive: 23.2%.

As for `Cc1cc(N(C)N)nc(NC(=O)NS(=O)(=O)c2ccccc2Cl)n1`, the “growth rescue (activation)” value was inactive: 13.9%.

For the compound `CCc1ccc(C(=O)/C=C/Nc2ccc(S(=O)(=O)Nc3cnc4ccccc4n3)cc2)cc1`, the “growth rescue (activation)” value is inactive: 18.8%.

With `COc1cccc2cc(C(=O)N3CCCCC3C)c(=O)oc12` (centres undefined), the “growth rescue (activation)” value was inactive: -1%.

For `Cc1ccc(/C=C/C(=O)Nc2nnc(C)s2)o1`, the “growth rescue (activation)” value is inactive: 20.5%.

For the compound `CC(OC(=O)CN(C)S(=O)(=O)c1ccc(Cl)cc1)C(=O)Nc1ccc(N2CCOCC2)cc1` (centres undefined), the “growth rescue (activation)” value is inactive: 14.8%.

Consider `COc1cc(C(=O)N/N=C2\CCS(=O)(=O)c3ccc(F)cc32)cc(OC)c1OC`, for which the “growth rescue (activation)” value is inactive: 4.19%.

`Cc1ccc(NC(=O)CN2CCCC2c2cccn2C)cc1C` (centres undefined): the “growth rescue (activation)” value is inactive: -7.17%.

Take `CCC(CC)NC(=O)COC(=O)c1ccc(OCc2ccc(C(C)=O)cc2OC)c(OC)c1`: the “growth rescue (activation)” value is inactive: 15.2%.

In the case of `Cn1c(N)c(N2CCCCC2)c(=O)n(CC(=O)Nc2ccc(Cl)c(Cl)c2)c1=O`, the “growth rescue (activation)” value is inactive: -11.4%.

Turning to `O=C(/C=C/c1ccco1)Nc1scc(-c2ccccc2)c1C(=O)O`, the “growth rescue (activation)” value is inactive: -53.1%.

Take `CC(C)(C)NC(=O)c1ccc(NC(=O)CSc2ccccc2)cc1`: the “growth rescue (activation)” value was inactive: 11.1%.

For the compound `Cc1nn(CCOc2ccccc2Cl)c(C)c1[N+](=O)[O-]`, the “growth rescue (activation)” value was inactive: 0.521%.

For the compound `COc1cccc(NC(=O)CSc2nc(C3CC3)nc3ccccc23)c1`, the “growth rescue (activation)” value is inactive: 18.8%.

Consider `O=C(CSc1nc2ncccc2[nH]1)c1cccc([N+](=O)[O-])c1`, for which the “growth rescue (activation)” value was inactive: 11.5%.
